# The whole screen tested about 310,000 compounds, of which about 14,000 (4.5%) showed an effect of 50% or more. The effect is printed as a negative number. The list shows a part of the results.
# Target: human ether-à-go-go-related gene (hERG) potassium channel (human, UniProt Q12809)
# Assay: primary screen, population patch clamp on CHO cells stably expressing hERG
# 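Also: peak tail current of the secondary pulse compared with the same well before compound.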
# human ether-à-go-go-related gene (hERG) potassium channel, sequence (Q12809 whole entry, looked up): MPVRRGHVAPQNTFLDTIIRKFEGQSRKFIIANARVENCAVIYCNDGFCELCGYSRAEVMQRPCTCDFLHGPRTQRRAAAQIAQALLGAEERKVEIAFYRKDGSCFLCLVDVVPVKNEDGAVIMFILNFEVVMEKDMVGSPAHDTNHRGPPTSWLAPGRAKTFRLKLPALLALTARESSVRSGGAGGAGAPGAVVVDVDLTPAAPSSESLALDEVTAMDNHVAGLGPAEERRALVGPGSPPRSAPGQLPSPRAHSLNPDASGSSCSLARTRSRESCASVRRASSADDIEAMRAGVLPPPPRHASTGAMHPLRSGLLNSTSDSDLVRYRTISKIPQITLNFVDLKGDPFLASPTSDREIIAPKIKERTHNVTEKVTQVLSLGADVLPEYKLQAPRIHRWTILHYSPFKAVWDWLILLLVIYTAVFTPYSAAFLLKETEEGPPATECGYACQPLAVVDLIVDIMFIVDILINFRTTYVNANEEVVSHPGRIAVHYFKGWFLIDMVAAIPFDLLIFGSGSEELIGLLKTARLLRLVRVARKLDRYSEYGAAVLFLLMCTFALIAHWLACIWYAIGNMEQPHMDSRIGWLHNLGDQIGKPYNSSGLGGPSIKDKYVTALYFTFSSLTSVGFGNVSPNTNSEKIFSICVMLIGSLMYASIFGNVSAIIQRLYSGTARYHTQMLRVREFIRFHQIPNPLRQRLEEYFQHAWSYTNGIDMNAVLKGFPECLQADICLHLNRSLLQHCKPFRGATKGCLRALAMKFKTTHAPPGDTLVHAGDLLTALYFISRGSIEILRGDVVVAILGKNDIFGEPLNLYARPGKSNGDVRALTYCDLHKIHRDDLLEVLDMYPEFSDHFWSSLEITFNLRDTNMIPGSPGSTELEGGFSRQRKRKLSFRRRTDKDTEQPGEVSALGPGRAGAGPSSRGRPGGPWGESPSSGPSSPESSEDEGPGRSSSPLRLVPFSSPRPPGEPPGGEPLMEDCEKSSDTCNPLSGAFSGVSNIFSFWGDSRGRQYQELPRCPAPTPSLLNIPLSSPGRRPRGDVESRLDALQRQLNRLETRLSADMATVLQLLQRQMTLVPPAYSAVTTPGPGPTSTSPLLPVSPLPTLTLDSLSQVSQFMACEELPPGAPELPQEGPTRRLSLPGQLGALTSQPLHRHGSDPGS
row,Compound,"hERG current change (%, negative = inhibition) at 10uM [%]"
1,CCCCn1c(N)c(N(CC(C)C)C(=O)C2CC(=O)N(c3ccc(C)cc3)C2)c(=O)[nH]c1=O (centres unmarked),8.87
2,COc1cccc(NC(=O)N2CCCC2C(=O)NCc2ccc(Cl)cc2)c1 (centres unmarked),-21.8
3,C/C(O)=C(/C=Nc1ccccc1)C(=O)Nc1ccccc1,8.49
4,CCN(CC)S(=O)(=O)c1ccc(N2CCOCC2)c(NC(=O)C2=COCCO2)c1,7.38
5,COc1ccc(C2=NN(c3ccccc3)C(c3cn(CCC(=O)O)nc3-c3ccccc3)C2)cc1 (centres unmarked),1.09
6,N#CC1=C(N)Oc2nc[nH]c(=O)c2C1c1cccs1 (centres unmarked),11
7,CCNC(=S)NNC(=O)Nc1ccccc1,6.65
8,COc1ccccc1C(=O)Nc1ccnn1C1CCN(C(C)CSC)CC1 (centres unmarked),-67
9,Cc1c(N)cccc1-c1nc2ccccc2[nH]1,17
10,COC(=O)C1=C(C)NC(C)=C(C(=O)OC)C1c1ccc(C)o1,12.7
11,COn1c(=O)c(-c2ccc(C)cc2)[n+]([O-])c2ccccc21,15.5
12,CNCC(=O)N(CC(C)C)c1c(N)n(CC(C)C)c(=O)[nH]c1=O,18.2
13,O=C1C=CC(=O)N1c1ccc(I)cc1Cl,18.9
14,COC(=O)C1=C(c2ccc(-c3ccccc3)c(F)c2)C[C@@H]2CC[C@H]1N2C(=O)NCCOc1ccccc1,21.1
15,Cc1ccc(P(=Nc2ccccc2)(N2CCOCC2)N2CCOCC2)o1,-17.1
16,CC(=O)N/N=C/c1cc(C(C)(C)C)cc(/C=N/NC(C)=O)c1O,20.5
17,CCOc1c(Cl)cc(CNCC(O)c2ccccc2)cc1OC.Cl (centres unmarked),-18.8
18,NS(=O)(=O)c1ccc(N/C=C\C(=O)c2ccc(F)cc2)cc1,22
19,Cn1c(O)c(C=NCCN2CCN(C(=O)Nc3ccccc3)CC2)c(=O)n(C)c1=O,13.1
20,Cl.O=[N+]([O-])c1cc(CN(CCO)CCO)ccc1O,-2.79
21,CC[C@H](C)[C@H](NC(N)=O)C(=O)Nc1ccc(OC)c(Cl)c1,20.9
22,Cc1cc(OC(=O)c2cc(Br)ccc2Cl)c([N+](=O)[O-])c(=O)[nH]1,-2.53

row,Compound,"hERG current change (%, negative = inhibition) at 10uM [%]"
1,O=C(Cc1cccc2ccccc12)NCC(=O)Nc1ccccc1F,3.24
2,CC(CSc1nnnn1-c1ccccc1)Cn1c(N2CCN(C)CC2)nc2c1c(=O)[nH]c(=O)n2C (centres unmarked),-43.6
3,COc1ccccc1CC(=O)N(CCC1=CCCCC1)c1c(N)n(Cc2ccccc2)c(=O)[nH]c1=O,-12
4,Cc1[nH]c(=O)[nH]c(=O)c1S(=O)(=O)NCC12CC3CC(CC(C3)C1)C2,-0.676
5,COc1ccc(/C=C2\CC/C(=C\c3ccc(OC)cc3OC)C2=O)c(OC)c1,-3.75
6,CN(C)Cc1ccc(CNC(=O)c2ccc(Cl)c(S(=O)(=O)NC3CC3)c2)cc1,7.46
7,CC(Oc1cc(-c2ccccc2)cc2ccccc12)C(=O)N1CCOCC1 (centres unmarked),1.68
8,COc1ccc(C(=O)C2CCCN(C(=O)c3cccc(N(C)C)c3)C2)cc1OC (centres unmarked),6.64
9,C=CCOC(=O)Cn1cnc2c(sc3nc(C)cc(C)c32)c1=O,9.96
10,Cc1cc(Cl)ccc1NC(=S)NCc1ccccc1Cl,19.4
11,Cn1c(=O)c(=O)n(C)c2cc(S(=O)(=O)N3CCN(c4ccccc4F)CC3)ccc21,3.38
12,O=C(N/N=C/c1ccccc1O)c1cc(=O)[nH]c2ccccc12,-1.25
13,Cc1ccc(C2=NC3(CCCCC3)NC2=S)cc1,5.86
14,CCCOc1ccc(C(=O)Nc2ccc(S(=O)(=O)N3C[C@@H]4C[C@@H](C3)c3cccc(=O)n3C4)cc2)cc1,-0.566
15,CC(Sc1nc2ccc(C(=O)c3ccccc3)cc2[nH]1)C(=O)O (centres unmarked),15.7
16,CSCCC(NC(=O)c1ccc(Cl)cc1Cl)C(=O)OC1CCCCC1=O (centres unmarked),-26.7
17,N#Cc1cc(-c2ccccc2)oc1NC(=O)c1ccco1,-22.2
18,COc1cc(OC)c(NS(=O)(=O)c2cc(C(=O)OCC(=O)NCC3CCCO3)ccc2OC)cc1Cl (centres unmarked),5
19,CC(=O)Oc1ccc(/C=N/NC2=NS(=O)(=O)c3ccccc32)cc1,20.6
20,C=CCn1cc(C(=O)NCCOC)c(=O)c2cc(S(=O)(=O)N(CC)CC)ccc21,-13.9
21,Cc1ccc(C2(C)NC(=O)N(CC(=O)Nc3ccc(N4CCOCC4)cc3N3CCOCC3)C2=O)cc1 (centres unmarked),-4.17
22,COc1ccc(OC)c(S(=O)(=O)Nc2cc3c4c(c2)CC(=O)N4CCC3)c1,10.6
